Measured values as given in PubChem BioAssay AID1347165 (National Center for Advancing Translational Sciences (NCATS), 2019).
The whole screen tested about 220,000 compounds, of which about 5,700 (2.6%) were called active. The shares of active, inactive and inconclusive entries below differ from those in the screen. The call rests on the fitted dose curve; in most records, active means well fitted inhibition curve with a large enough effect; inconclusive means small, poorly fitted or top-dose-only effect; inactive means no such curve, though single readings can be large or run the other way. A potency beside an inconclusive call is a rough fit, not a confirmed value.

biological target: Lysine-specific demethylase 5B (Homo sapiens) (UniProt Q9UGL1); test: Primary screen for KDM5B Histone Demethylases FDH-coupled qHTS; settings: FDH-coupled NADH fluorescence (FDH is formaldehyde dehydrogenase); activity change, negative = inhibition: at 57.7 µM (top of the series) unless noted; further: nearly all actives have a fitted effect of over 70% in size; on activity change, negative = inhibition: 0% is about no effect
UniProt Q9UGL1, sequence (Q9UGL1 whole entry, looked up): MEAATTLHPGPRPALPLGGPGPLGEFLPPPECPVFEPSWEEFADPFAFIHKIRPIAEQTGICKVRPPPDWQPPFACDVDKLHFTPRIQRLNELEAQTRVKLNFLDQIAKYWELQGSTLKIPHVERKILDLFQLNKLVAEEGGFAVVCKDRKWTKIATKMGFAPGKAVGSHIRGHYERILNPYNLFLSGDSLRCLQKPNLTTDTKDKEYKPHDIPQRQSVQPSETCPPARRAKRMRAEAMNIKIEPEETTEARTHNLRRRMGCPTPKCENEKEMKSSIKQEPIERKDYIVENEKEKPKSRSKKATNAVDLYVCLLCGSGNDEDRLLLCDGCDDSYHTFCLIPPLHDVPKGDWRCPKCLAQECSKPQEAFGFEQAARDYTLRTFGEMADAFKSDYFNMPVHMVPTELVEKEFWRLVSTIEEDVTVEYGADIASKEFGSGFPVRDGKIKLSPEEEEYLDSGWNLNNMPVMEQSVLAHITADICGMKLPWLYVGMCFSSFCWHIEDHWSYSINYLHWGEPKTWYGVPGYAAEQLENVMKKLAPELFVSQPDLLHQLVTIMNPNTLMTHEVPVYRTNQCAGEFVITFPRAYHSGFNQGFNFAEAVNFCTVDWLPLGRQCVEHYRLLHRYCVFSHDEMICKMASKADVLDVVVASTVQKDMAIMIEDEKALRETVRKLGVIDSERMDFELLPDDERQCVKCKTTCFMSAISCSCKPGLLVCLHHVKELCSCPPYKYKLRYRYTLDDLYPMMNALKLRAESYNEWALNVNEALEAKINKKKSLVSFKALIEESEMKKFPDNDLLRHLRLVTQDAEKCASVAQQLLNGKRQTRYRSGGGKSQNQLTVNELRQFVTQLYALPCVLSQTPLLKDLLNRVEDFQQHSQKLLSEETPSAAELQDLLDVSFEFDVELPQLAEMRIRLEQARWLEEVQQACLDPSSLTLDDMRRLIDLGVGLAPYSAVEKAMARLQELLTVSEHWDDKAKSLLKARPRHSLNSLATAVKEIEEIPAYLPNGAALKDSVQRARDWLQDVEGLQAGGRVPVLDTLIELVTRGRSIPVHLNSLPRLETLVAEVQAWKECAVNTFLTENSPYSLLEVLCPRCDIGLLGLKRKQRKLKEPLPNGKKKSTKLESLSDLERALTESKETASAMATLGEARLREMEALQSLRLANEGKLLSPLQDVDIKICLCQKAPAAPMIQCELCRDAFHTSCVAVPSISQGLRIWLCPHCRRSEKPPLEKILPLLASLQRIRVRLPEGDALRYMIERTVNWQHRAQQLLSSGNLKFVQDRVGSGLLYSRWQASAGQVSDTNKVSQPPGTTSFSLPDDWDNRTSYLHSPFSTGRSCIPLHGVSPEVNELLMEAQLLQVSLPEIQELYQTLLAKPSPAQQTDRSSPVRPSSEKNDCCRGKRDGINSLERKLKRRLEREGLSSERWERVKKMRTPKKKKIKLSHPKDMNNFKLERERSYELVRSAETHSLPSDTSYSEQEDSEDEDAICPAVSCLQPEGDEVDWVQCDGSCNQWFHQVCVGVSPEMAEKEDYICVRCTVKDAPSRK
Procedure, shortened: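 qHTS format, multiple compound concentrations. Buffer 50 mM HEPES pH 7.5/0.01% Tween-20; 200 nM KDM5BΔAP final; 10 min compound preincubation; substrate-mix levels 12.5 µM peptide, 25 µM α-KG, 0.25 mM NAD⁺; 30 min RT; ΔRFU.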
Potency means the concentration at half of the fitted maximal effect; tags describe the fitted curve by direction and shape.

SMILES | Potency | activity change, negative = inhibition
CN(C)CCN(C)Cc1c2ccccc2c(CN(C)CCN(C)C)c2ccccc12 | inconclusive: 35.5 µM [inhibitor, single point] | –
CC(C)(C)c1nc2cc(NC(=O)c3cc[n+]([O-])cc3)ccc2o1 | – | inactive: -8.17%
CC(C)(Oc1nn(Cc2cccc(Cl)c2)c2ccccc12)C(=O)NC1CCOCC1 | inconclusive: 10 µM [inhibitor, partial curve] | –
COCCCN1C(=O)N(Cc2ccccc2)C(=O)C12CCN(Cc1cccs1)CC2 | inconclusive: 25.1 µM [inhibitor, single point] | –
O=C(c1cccs1)N1CCC(OCC2CC2)C1 (centres undefined) | – | inactive: 8.79%
CCCCN(CC)Cc1ccc(CNS(=O)(=O)c2cc3c(cc2Cl)NC(=O)CO3)o1 | – | inconclusive: -41% [inhibitor]
COc1ccccc1-c1nc(C(=O)N(C)C)n2ccncc12 | active: 100 µM | –
COc1ccccc1N1CCN(C(=O)[C@@H]2Cc3c[nH]c4cccc(c34)[C@H](CC(C)C)N2)CC1 | inconclusive: 35.5 µM [inhibitor, partial curve, poor fit] | –
O=C1COc2ccc(-c3cccc(O)c3)nc2CN1CCOc1ccccc1 | – | inactive: -18.7% [at 86.2 µM]
COCc1ccc2c(c1)c(OC(C)(C)C(=O)NCC1CC1)nn2Cc1ccccc1 | active: 31.6 µM | –
COc1cc2cc(C(=O)N(C)C3CCS(=O)(=O)C3)[nH]c2cc1OC (centres undefined) | inconclusive: 28.2 µM [inhibitor, partial curve, poor fit] | –
NC(=O)CCC[C@H]1NC[C@@H]2C[C@H]1CN(Cc1ccccc1)C2 | inconclusive: 17.8 µM [inhibitor, partial curve, poor fit] | –
NC(=O)c1ccc(C(=O)N2CCC(c3nc4cc(Cl)ccc4o3)CC2)cc1 | – | inactive: -10.2%
Cc1ccc(NS(=O)(=O)c2ccc(NN)c([N+](=O)[O-])c2)c(C)c1 | inconclusive: 35.5 µM [inhibitor, partial curve, poor fit] | –
CCOc1ccc(-c2cc(NC(=O)Nc3ccccc3C(F)(F)F)c(C(=O)OC)s2)cc1 | inconclusive: 25.1 µM [inhibitor, partial curve, poor fit] | –
CCC(=O)Nc1ccc(Cl)c(-c2nc3ccc(C)cc3o2)c1 | inconclusive: 39.8 µM [inhibitor, single point] | –
Cc1ccc(CNC(=O)Cn2ccn(-c3cc(C)cc(C)c3)c(=O)c2=O)cc1 | inconclusive: 39.8 µM [inhibitor, single point] | –
CCNc1nc2ccccc2nc1C(C#N)S(=O)(=O)c1ccc(C)cc1 (centres undefined) | – | inactive: -1650%
Cc1nn(-c2ccccc2)nc1C(=O)N[C@H](C)c1onc(C)c1C(=O)O | active: 31.6 µM | –
